Measured values from ChEMBL document CHEMBL4888484, “Replenishing the malaria drug discovery pipeline: Screening and hit evaluation of the MMV Hit Generation Library 1 (HGL1) against asexual blood stage Plasmodium falciparum ,using a nano luciferase reporter read-out” (2022).
The whole screen tested about 150,000 compounds, of which about 540 (0.36%) showed an effect of 50% or more. The list shows a part of the results.

The compounds below were run on Plasmodium falciparum (assay: Primary screen in NF54 nanoGlo assay, in single point, at 2uM, 72h; a lower Z score goes with more inhibition). Settings: timepoint 72 hour.
Assay type: functional, Erythrocyte

Compound	% Inhibition	Z score
CCn1cc(CN(C)C(=O)CCc2ccncc2)cn1	1%	-0.22
Cc1cc(=O)[nH]c(N2CCC(NC(=O)Cc3noc4ccccc34)CC2)n1	-4%	0.75
OCCN(CCCc1cncc2ccccc12)C1CCC1	-9%	1.15
Cc1ccc(Cc2nc(N3CCN(S(=O)(=O)c4ccc(C)cc4)CC3)c3c(C)nn(-c4ccccc4)c3n2)cc1	-10%	1.51
O=C(NCCN1CCOCC1)C1CCN(C(=O)c2ccco2)CC1	0%	0.02
CN1CC2(CCN(Cc3ccc4c(c3)OCO4)CC2)C[C@@H](c2ccccc2)C1=O	-9%	1.03
CN(Cc1ccccc1)Cn1cnc2c1c(=O)n(C)c(=O)n2C	-2%	0.34
COc1cc(N2CCC3(CC2)c2nc[nH]c2CCN3S(C)(=O)=O)ncn1	7%	-0.97
CCOc1ccc(CNc2nc(C3CC3)no2)cc1	-2%	0.25
C[C@H](NCC1(C(N)=O)CCOCC1)C(C)(C)c1ccc(F)cc1	-3%	0.58
Cc1nc2ncnn2c(N2CC[C@]3(CNc4ccccc43)C2)c1C	-11%	1.48
COCc1nc(C)cc(N(C)Cc2nnc3n2CCNC3=O)n1	-13%	1.4
NC(=O)[C@]12CCC[C@H]1CN(C(=O)Nc1ccc(C3CCC3)cn1)C2	-9%	1.71
CCc1ccc(S(=O)(=O)C2CS(=O)(=O)CC2NCc2ccccc2C)cc1 (stereo unspecified)	-15%	1.77
COc1cccc([C@@H]2c3nc[nH]c3CCN2Cc2cnc(OC)nc2)c1	10%	-1.28
Cc1ncc(S(C)(=O)=O)c(N2CCC[C@H](C(=O)N3CCCC3)C2)n1	9%	-1.27
COc1cccc(S(=O)(=O)N2C3C=CCC2CC3)c1 (stereo unspecified)	-6%	0.8
CS(=O)(=O)CC1(CON=C(N)c2cccnc2)CC1	36%	-0.7
NC(=O)c1ccc(NC(=O)CN2CCN(c3ccc(F)cc3)C2=O)cc1	-7%	0.85
CCN1c2ccccc2C(=O)CS1(=O)=O	-8%	0.99
CN(C)c1cnccc1NC(=O)N[C@H]1CCN(C2CCC2)C1=O	0%	0
CC(CNC(=O)[C@@H](C)c1ccccc1)c1nnn[nH]1 (stereo partly specified)	-2%	0.38

Compound	% Inhibition	Z score
O=C(NC[C@H]1CCOc2ccccc21)c1cnn(C2CCC2)c1	2%	-0.3
CCC(NC(=O)c1ccc[nH]1)C1CN(Cc2ccccc2)CCO1 (stereo unspecified)	1%	-0.2
CCc1c(C)nn(CC(=O)N(C)Cc2cc(C3CC3)on2)c1C	-9%	1.09
Cc1nc(C)c(F)c(NCc2ccnc(N)c2)n1	4%	-0.52
COc1ccc(CN2CCN(C(=O)c3ccsc3)CC2)cn1	4%	-0.5
COCCC(=O)N[C@H]1CN(C2CCCC2)C[C@@H]1c1ccc(OC)cc1	6%	-1.26
CCN(C(=O)c1cc(S(=O)(=O)N(CC)CC)cn1C)[C@@H](C)COC	10%	-1.26
Cc1nnnn1Cc1nc(C(C)(C)C)cs1	-5%	0.5
O=C1CN(Cc2ccccc2)C(=O)[C@@H](Cc2ccc(O)cc2)N1	-3%	0.5
CC(C)COc1nc(-c2cccs2)n(-c2cccc(NC(=O)C(C)C)c2)n1	1%	-0.12
Cc1ccc2nc(-c3ccccc3Cn3cccn3)[nH]c2c1	-12%	1.78
CC1(C)CN(C(=O)NCC2COc3ccccc3O2)[C@H]2COC[C@H]21 (stereo partly specified)	7%	-1.53
CC(C)Cc1cc(C(=O)N[C@H]2CCN(c3cnccn3)C[C@@H]2O)nc(N)n1	-8%	1.28
CC1=CC(C)(C)NC(=O)N1c1ccccc1O	-7%	0.83
O[C@@H](CNC1CCCC1)COc1ccc(-c2ccccc2)cc1	-7%	0.84
Cc1ncsc1CCNC(=O)c1ccc(CN2CCC(C)CC2)o1	-8%	1.24
NC(=O)c1ncc(Br)cc1Br	-2%	0.23
CC1CCC(c2noc([C@H]3CCCS(=O)(=O)C3)n2)CC1 (stereo partly specified)	-2%	0.3
Cc1cc([C@@H](O)CNS(=O)(=O)c2ccccc2)c(C)o1	-7%	0.78
CO[C@@H](C)c1nc(Cn2cc(Cl)c(=O)[nH]c2=O)cs1	-18%	1.82
COC(=O)c1ccc(CNC(C)(C)CC(=O)OC(C)(C)C)[nH]1	-4%	0.59
